In the supplement of paper PMC3334620:
Whole data set: some 33,000 sequences, median “E-score (-0.5 to 0.5)” near -0.016, cut for the highest 2% near 0.31. The list shows a part of the results.

The sequences below were run against Cst6 (UniProt P40535) (assay: PBM E-score (8-mer binding enrichment) (E-score (-0.5 to 0.5)); higher = stronger / more preferred TF binding; most listed sequences are background and not binding sites). Conditions: protein concentration: 200 nM; construct: GST-DNA-binding domain.
In short: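 Using PURExpress in vitro transcription/translation, GST-tagged yeast transcription factors were made in full-length or DNA-binding-domain form. These were applied at about 100-200 nM to double-stranded universal all-10-mer Agilent arrays, and bound protein was detected with fluorescent anti-GST. Scans were normalised with masliner before the Universal PBM Analysis Suite assigned E-scores to ungapped eight-base words pooled with their reverse complements.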
CAGATCGC was tested, and the “PBM E-score” value was 0.0923.
With AGCGGGAG the “PBM E-score” value was -0.307.
In the case of ATATCCCC, the “PBM E-score” value was -0.155.
For GGGTCACC, the “PBM E-score” value was -0.153.
AGGTCAGG was tested, and the “PBM E-score” value was -0.173.
With ATCTGGAC the “PBM E-score” value was -0.311.
GGATTTCA was tested, and the “PBM E-score” value was 0.066.
In the case of ATTTTAGC, the “PBM E-score” value was 0.0561.
For TATGGGCA, the “PBM E-score” value was 0.00542.
CGCGTGTC was tested, and the “PBM E-score” value was 0.108.
GCGGCCCC was tested, and the “PBM E-score” value was -0.286.
TGTTTAAA was tested, and the “PBM E-score” value was 0.176.
In the case of GAACAAGC, the “PBM E-score” value was -0.111.
ATCATTAG was tested, and the “PBM E-score” value was 0.19.
GAAAAGCC was tested, and the “PBM E-score” value was -0.113.
For ATCATACA, the “PBM E-score” value was 0.268.
In the case of ACCTGGTA, the “PBM E-score” value was -0.23.
ATTAGGTG was tested, and the “PBM E-score” value was 0.0133.
For ACAGCTAA, the “PBM E-score” value was -0.103.
With CATTCCAC the “PBM E-score” value was -0.0469.
With CTGCTCAA the “PBM E-score” value was -0.162.
AACCATAG was tested, and the “PBM E-score” value was -0.0945.
For GGCAAGCA, the “PBM E-score” value was -0.126.
ACTGTGAC was tested, and the “PBM E-score” value was 0.162.
For GGCTTAGA, the “PBM E-score” value was -0.295.
With AACTCCAG the “PBM E-score” value was -0.214.
In the case of CTGGGACC, the “PBM E-score” value was -0.291.
For CCGCGATC, the “PBM E-score” value was -0.0946.
With GCGGAAGC the “PBM E-score” value was -0.0555.
For AGTTGGCA, the “PBM E-score” value was -0.076.
For ACTTCACT, the “PBM E-score” value was -0.0201.
In the case of AATAAGGA, the “PBM E-score” value was -0.0197.
For ATTTAAAG, the “PBM E-score” value was 0.132.
In the case of GCAATGAA, the “PBM E-score” value was 0.223.
With GTGATAGA the “PBM E-score” value was 0.00535.
ACTCTGTG was tested, and the “PBM E-score” value was -0.124.
With CCACATCA the “PBM E-score” value was 0.142.
AACCCCGG was tested, and the “PBM E-score” value was -0.229.
With ATGGATTC the “PBM E-score” value was -0.0266.
ACCCCTGA was tested, and the “PBM E-score” value was -0.217.
For AAGGTCAT, the “PBM E-score” value was -0.0103.
With CGGTGCCC the “PBM E-score” value was -0.0527.
For AATTGAGT, the “PBM E-score” value was 0.111.
For AAAAAAGT, the “PBM E-score” value was 0.222.
With CTGTAACA the “PBM E-score” value was -0.176.
For ACTATCGG, the “PBM E-score” value was -0.109.
With CAATGTCA the “PBM E-score” value was 0.206.
For CTTCCGTA, the “PBM E-score” value was 0.13.
With ACGTAATC the “PBM E-score” value was 0.484.
In the case of TCACGGCA, the “PBM E-score” value was 0.224.
With CCGAGGCG the “PBM E-score” value was 0.0158.
With TGGACTAA the “PBM E-score” value was -0.101.
For ACACACGT, the “PBM E-score” value was 0.239.
With AGCAAAAA the “PBM E-score” value was 0.216.
GGATGACA was tested, and the “PBM E-score” value was 0.287.
With ATCCAAGG the “PBM E-score” value was 0.0492.
With CTTAGTTA the “PBM E-score” value was 0.041.
With ACAGTCGG the “PBM E-score” value was -0.12.
For TAACACGA, the “PBM E-score” value was 0.0703.
AGTCCTAA was tested, and the “PBM E-score” value was -0.0516.
With AGTGTTTA the “PBM E-score” value was 0.147.
For CAGCTGCC, the “PBM E-score” value was -0.146.
In the case of AGCCAAGA, the “PBM E-score” value was -0.0216.
CCCTTTGC was tested, and the “PBM E-score” value was 0.0335.
For ATTTCGGC, the “PBM E-score” value was 0.0999.
For AGTGACGG, the “PBM E-score” value was 0.301.
ACTTTGCC was tested, and the “PBM E-score” value was -0.00947.
For AGAGAAAA, the “PBM E-score” value was 0.212.
In the case of ATTGGACG, the “PBM E-score” value was -0.116.
For GTATATAA, the “PBM E-score” value was 0.242.
GTCAGTGA was tested, and the “PBM E-score” value was 0.308.
TCCGATCA was tested, and the “PBM E-score” value was 0.0632.
In the case of ACATATAT, the “PBM E-score” value was 0.233.
ACGACGGC was tested, and the “PBM E-score” value was 0.00372.
With CACTACGG the “PBM E-score” value was -0.0659.
CATTCGCG was tested, and the “PBM E-score” value was -0.024.
With CGACGGGC the “PBM E-score” value was 0.0567.
In the case of CTAACGGC, the “PBM E-score” value was 0.0968.
CAAGCATG was tested, and the “PBM E-score” value was 0.0911.
In the case of CAATTCAA, the “PBM E-score” value was 0.145.
For ACCTTAAT, the “PBM E-score” value was 0.0706.
In the case of AATCGGGC, the “PBM E-score” value was -0.0357.
GGATTGCC was tested, and the “PBM E-score” value was -0.0937.
ATTTAAAT was tested, and the “PBM E-score” value was 0.273.
ATGACTCG was tested, and the “PBM E-score” value was 0.00617.
In the case of ACACGAGC, the “PBM E-score” value was -0.141.
In the case of ACAATCCA, the “PBM E-score” value was 0.231.
For AACTTAGC, the “PBM E-score” value was -0.0223.
With AGATAAAG the “PBM E-score” value was 0.103.
ACTCCGGC was tested, and the “PBM E-score” value was 0.0693.
For GATGCTAA, the “PBM E-score” value was 0.146.
AAGCATAA was tested, and the “PBM E-score” value was 0.0827.
With GACAACTA the “PBM E-score” value was 0.155.
With ATCGTAGC the “PBM E-score” value was 0.0328.
With AAAGAGAC the “PBM E-score” value was 0.00837.
ATGCATCG was tested, and the “PBM E-score” value was -0.00649.
With AGCGTCCG the “PBM E-score” value was -0.0013.
AGTGTGAA was tested, and the “PBM E-score” value was 0.0896.
For GAATGTTA, the “PBM E-score” value was 0.0491.
AATTTAGG was tested, and the “PBM E-score” value was 0.23.
ACGGCGAC was tested, and the “PBM E-score” value was 0.217.
CCAGCAAC was tested, and the “PBM E-score” value was -0.05.
In the case of CGGATTTA, the “PBM E-score” value was 0.131.
In the case of AGAGGCAT, the “PBM E-score” value was 0.0976.
In the case of AGACATAC, the “PBM E-score” value was -0.053.
GGACTTAC was tested, and the “PBM E-score” value was -0.103.
With ATGAGATA the “PBM E-score” value was 0.214.
In the case of CCCGTCTC, the “PBM E-score” value was -0.326.
For TCCGAGGA, the “PBM E-score” value was -0.247.
In the case of CCGGTCCG, the “PBM E-score” value was -0.256.
For GCACCCAA, the “PBM E-score” value was -0.0332.
With ATGGGTTG the “PBM E-score” value was -0.0487.
CTAAGCAG was tested, and the “PBM E-score” value was -0.126.
For TCAATCCA, the “PBM E-score” value was 0.0787.
In the case of GCGATCAA, the “PBM E-score” value was -0.00522.
With GTCATGTA the “PBM E-score” value was 0.216.
For GATTGGCA, the “PBM E-score” value was -0.0435.
For ACGAGCCT, the “PBM E-score” value was -0.102.
With CTACCCTC the “PBM E-score” value was -0.178.
With ACCAGCAA the “PBM E-score” value was 0.118.
For AGCTAGAC, the “PBM E-score” value was -0.113.
For CGTAGGCC, the “PBM E-score” value was -0.0444.
For GCCCTCGA, the “PBM E-score” value was -0.25.
With AGCGTATC the “PBM E-score” value was -0.14.
For GGCTCACA, the “PBM E-score” value was 0.0214.
In the case of GACACGTA, the “PBM E-score” value was 0.184.
With CAGCGTAG the “PBM E-score” value was -0.178.
In the case of CATGTCGG, the “PBM E-score” value was -0.0904.
With AAGGACCG the “PBM E-score” value was -0.0915.
In the case of AGCGTCTC, the “PBM E-score” value was -0.321.
With CATTCAAG the “PBM E-score” value was -0.183.
With CTACTTAA the “PBM E-score” value was -0.0101.
In the case of CCTCCGTA, the “PBM E-score” value was -0.179.
With AGTCCTAG the “PBM E-score” value was -0.275.
With GAGTATGC the “PBM E-score” value was -0.0395.
In the case of GAATGGCC, the “PBM E-score” value was -0.195.
CTCCGGTC was tested, and the “PBM E-score” value was -0.347.
In the case of CATCGAGC, the “PBM E-score” value was -0.135.
With CAGTCGTC the “PBM E-score” value was -0.167.
For CCTCCTGA, the “PBM E-score” value was -0.14.
In the case of ATACAGTA, the “PBM E-score” value was 0.0925.
For CCGGGCAG, the “PBM E-score” value was -0.205.
For CAGCCGCG, the “PBM E-score” value was -0.00473.
For TATTTCCA, the “PBM E-score” value was 0.0255.
CGGAGCCC was tested, and the “PBM E-score” value was -0.403.
For AGAAGACA, the “PBM E-score” value was 0.00595.
In the case of AGGAGAGC, the “PBM E-score” value was -0.31.
In the case of CTATAGCA, the “PBM E-score” value was 0.0171.
For AAGCGTTG, the “PBM E-score” value was -0.0825.
In the case of ACCGTGAC, the “PBM E-score” value was 0.291.
In the case of ACTTGACC, the “PBM E-score” value was -0.269.
CGTGGTAC was tested, and the “PBM E-score” value was -0.143.
With AAAAATGG the “PBM E-score” value was 0.201.
For TCCATACA, the “PBM E-score” value was 0.0501.
CTTATTTA was tested, and the “PBM E-score” value was 0.0478.
With TAGGCCGA the “PBM E-score” value was -0.308.
With CAACATGC the “PBM E-score” value was 0.163.
CTGTTTTA was tested, and the “PBM E-score” value was 0.0619.
For CGAGTGGA, the “PBM E-score” value was -0.231.
In the case of AAAAGGTC, the “PBM E-score” value was -0.131.
For GCACCGGA, the “PBM E-score” value was -0.237.
For CCAATACC, the “PBM E-score” value was -0.182.
With CGTCCGTA the “PBM E-score” value was 0.171.
For ACCTAGAT, the “PBM E-score” value was -0.0922.
For CTTGTCCA, the “PBM E-score” value was -0.0587.
In the case of CAACAATC, the “PBM E-score” value was 0.197.
For CCCTCTAA, the “PBM E-score” value was -0.161.
For CAACTCGC, the “PBM E-score” value was 0.00649.
In the case of ATAGCGAA, the “PBM E-score” value was 0.187.
GTCACAGA was tested, and the “PBM E-score” value was 0.234.
In the case of CACGTACG, the “PBM E-score” value was 0.151.
With AGACGGTC the “PBM E-score” value was -0.164.
